Results as given in the supplement of paper PMC11417369.
Some of the results follow.

test system: PfHDP1 homeodomain (GST-tagged); assay: gcPBM binding intensity (ln(normalized median fluorescence intensity)); higher = stronger DNA binding
Method in brief: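 Plasmodium falciparum DNA-binding domains carrying a GST tag were expressed in E. coli and applied for 1 h, at about 25 μg on average, to an Agilent 4 × 180k array. The array held primer-extended double-stranded 36-bp intergenic genomic probes together with negative controls, and binding took place in 1× PBS with 1% milk, 0.2 mg/ml BSA, 0.5% salmon testes DNA and 0.03% Triton X-100. An Alexa488 anti-GST antibody detected bound protein, and the array was scanned at 488 nm. Binding intensity is taken as the highest Masliner-normalised natural-log median intensity across replicate spots of either probe orientation.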

Row | Sequence | gcPBM binding intensity (ln)
1 | TGACATAAAAAATATACACACTATAATATTTATACT [CACACA_site6776] | 6.28
2 | TCTTTATCTTCTTATACACACATTTATTAAAAAAAA [CACACA_site445] | 7.26
3 | ATTTTTTTTTTTTTTTTTTTTGCACCATAAAATAAT [CACACA_negctrl_site1324] | 10.1
4 | TATATACTCAAACACACACACACATACACAGACATA [CACACA_site5025] | 7.1
5 | ATTTTGACATTATATAGTACATATAATTTACATTTA [XGTACX_site3024] | 6.64
6 | TATATATATATGTGTACACATTTGTCAGATTATATA [CACACA_site4813] | 8.83
7 | AGATTGGAACATTAAAGTACTTACTTTTTTTTTTTT [XGTACX_site8017] | 6.14
8 | AGAAATATATCTATTTGTCCGTATATTCATATTTAT [XGTACX_site8427] | 6.45
9 | ATAAAAATATTGTCTAGTACATATTTATAATAAAAA [XGTACX_site7523] | 6.54
10 | TATATATATGAGTATACACACCTGATAAAGGTATAT [CACACA_site5462] | 6.87
11 | GATTACTAGAAATGCACACACTGATAAAATAAGGAA [CACACA_site6131] | 10.1
12 | TTAAACTTGAAACACACACACACACCGATATAAAAA [CACACA_site4578] | 6.9
13 | GTGTAAATATAATTAGTTTCACAAAACAAATATTTA [CACACA_negctrl_site717] | 6.01
14 | ATGGGTATTAAGTGTACACATATAGTGTATTTTGTT [CACACA_site4452] | 6.8
15 | AGGCACAAAATTAAATGTACATATATATATATATAT [XGTACX_site3323] | 9.44
16 | TATTATTAATATGTATGGTTGTAATCTGTGTCTCCT [TGCATGCA_negctrl_site190] | 6.57
17 | AATATAATTTTTTATTGTACAAAAAAATTATTTAAT [XGTACX_site3248] | 6.2
18 | AATAAGTATACACATACACACACACCCAAAAAAAAA [CACACA_site8034] | 6.95
19 | TTTTTTTTTATCAAATGTACATATATATAATAATAA [XGTACX_site3941] | 6.45

Row | Sequence | gcPBM binding intensity (ln)
20 | CATTTTGTAAGATATGCACACATGGATCATATTTTA [CACACA_site423] | 9.5
21 | AAAAAGAAAAATTGCACACACTTATAAAAATATACG [CACACA_site6074] | 8.71
22 | TATATAAGAATATATACACACATATATGTATATATA [CACACA_site2178] | 6.45
23 | TTTTACAATGAAATATGTACTTAAATGTCCAAATTC [XGTACX_site781] | 6.06
24 | TTAACCATTAATTCTCTACACACTTTTATTTTATTT [CACACA_site8522] | 6.78
25 | GTTAACAAATAATGCACACAAATGGATAAAATTATA [CACACA_site3725] | 9.97
26 | ACATTCAAGCGTAATTGTACATACATATATATATAT [XGTACX_site8876] | 9.02
27 | TATTGTATCCTTAATGCATGCACCAAATAAAAAAAG [TGCATGCA_site541] | 9.48
28 | ATGTATATAAATAGTAGTACATTATTTCACACTGTA [XGTACX_site2061] | 6.13
29 | CACACCCACAGACACACACACACATATATAATATAT [CACACA_site594] | 7.25
30 | AAAAAAAAAAAAAAAGCACACACCAATGAGCAGCTT [CACACA_site1845] | 6.81
31 | ATATGTTACAAAGATTGTACTTATTAAGGAGCGACT [XGTACX_site5094] | 6.34
32 | TAATATATGTATTATGCATGTGAATAAGCACTTGAT [TGCATGCA_site848] | 6.6
33 | TATAATCATATACACGCATGTATAAAATTTAATACT [TGCATGCA_site700] | 6.59
34 | ATATATATATAATGTAGTACTATTTAATAATAAGCC [XGTACX_site1263] | 8.72
35 | ACCATATGTACATTTTTTTTTTTTTTTTTTTTTTTT [CACACA_negctrl_site1188] | 7.08
36 | TTCATATGTTTTAACACACACGCATATATTATATAT [CACACA_site2007] | 6.94
37 | AAAAAAATTTGGCATACACACACACCCCCACCCACA [CACACA_site8094] | 7.4
38 | AATAATTTGGTCTTATCAAAAATTAAAAATAAATAA [XGTACX_negctrl_site430] | 6.05

Row | Sequence | gcPBM binding intensity (ln)
39 | AAAAAACATTTTCGAGTGCATGTTTTGCTTTATTTC | 6.65
40 | TTAAATGTTAAAAGGGTGCTATTATATAAATGAAAA [GTGCAC_site9882] | 6.84
41 | ATGACAATTCAAAATTGTACATAAAAAAAAAAAAAA [XGTACX_site7560] | 6.47
42 | TGTAAACATAAGATATGTACTTATATCATATTATAA [XGTACX_site6883] | 6.09
43 | GTTTTATATTATATATGTACATATCCATGAGATATA [XGTACX_site3328] | 7.48
44 | AAATAAAAATAAAATAAAATAAAATTAAATGGGAAT [GTGCAC_negctrl_site349] | 6.47
45 | TTTAACTTTTATATAACACACATATTGTAATTATGT [CACACA_site6486] | 6.58
46 | TAAAAATTACTATATGAACACACATGATTAGATATA [CACACA_site9012] | 6.33
47 | AGGTGATTAATATATACACACATACATATATATATA [CACACA_site8913] | 8.75
48 | TATAAGCTTTCAATGTGTACATATTATTTTATTATT [XGTACX_site3988] | 7.1
49 | TCTTATAAACATGTATATATTAAAAAAAAAAAAAAA [TGCATGCA_negctrl_site86] | 6.5
50 | AAAAATTACCCTTGTGTACACATATATTATCTGTAT [CACACA_site4513] | 7.89
51 | AACATATTGGATTTAGTGCACATATATATCATAATA | 10
52 | TAATAATAATTAAATTGTACATATAATATAATATAA [XGTACX_site8554] | 6.46
53 | ATATTATCATATTCGAGTACACGAAGTATTATTGCA [XGTACX_site6765] | 6.52
54 | AATAAAGTAATAACTACACACATTTATAAAAAAGTA [CACACA_site3753] | 6.29
55 | ACAAGAGAAAAAAATACACACAAGATAAAAATGTAT [CACACA_site607] | 6.52
56 | ATATATATAGATCGAAGTACAGATAGAATGAAAATA [XGTACX_site2695] | 6.8
57 | TAAAAAAATTTTACAAGTACAAAAAAATGTAATAAA [XGTACX_site4829] | 6.41
